# Where “and” joins values, the source holds several entries; their conditions need not be identical. Equal entries are not always repeated. The whole screen tested about 390,000 compounds, of which about 17,000 (4.4%) were called active. The shares of active, inactive and inconclusive entries below differ from those in the screen. Calls come from the whole dose curve; as a rule, active = well fitted inhibition curve with a large enough effect; inconclusive = small, poorly fitted or top-dose-only effect; inactive = no such curve, though single readings can be large or run the other way. Where the call is inconclusive, the potency comes from a doubtful curve fit.
# Target: Lysine-specific demethylase 4A (Homo sapiens) (UniProt O75164)
# Sequence of UniProt O75164 (O75164 whole entry, looked up, the tested form may be a part): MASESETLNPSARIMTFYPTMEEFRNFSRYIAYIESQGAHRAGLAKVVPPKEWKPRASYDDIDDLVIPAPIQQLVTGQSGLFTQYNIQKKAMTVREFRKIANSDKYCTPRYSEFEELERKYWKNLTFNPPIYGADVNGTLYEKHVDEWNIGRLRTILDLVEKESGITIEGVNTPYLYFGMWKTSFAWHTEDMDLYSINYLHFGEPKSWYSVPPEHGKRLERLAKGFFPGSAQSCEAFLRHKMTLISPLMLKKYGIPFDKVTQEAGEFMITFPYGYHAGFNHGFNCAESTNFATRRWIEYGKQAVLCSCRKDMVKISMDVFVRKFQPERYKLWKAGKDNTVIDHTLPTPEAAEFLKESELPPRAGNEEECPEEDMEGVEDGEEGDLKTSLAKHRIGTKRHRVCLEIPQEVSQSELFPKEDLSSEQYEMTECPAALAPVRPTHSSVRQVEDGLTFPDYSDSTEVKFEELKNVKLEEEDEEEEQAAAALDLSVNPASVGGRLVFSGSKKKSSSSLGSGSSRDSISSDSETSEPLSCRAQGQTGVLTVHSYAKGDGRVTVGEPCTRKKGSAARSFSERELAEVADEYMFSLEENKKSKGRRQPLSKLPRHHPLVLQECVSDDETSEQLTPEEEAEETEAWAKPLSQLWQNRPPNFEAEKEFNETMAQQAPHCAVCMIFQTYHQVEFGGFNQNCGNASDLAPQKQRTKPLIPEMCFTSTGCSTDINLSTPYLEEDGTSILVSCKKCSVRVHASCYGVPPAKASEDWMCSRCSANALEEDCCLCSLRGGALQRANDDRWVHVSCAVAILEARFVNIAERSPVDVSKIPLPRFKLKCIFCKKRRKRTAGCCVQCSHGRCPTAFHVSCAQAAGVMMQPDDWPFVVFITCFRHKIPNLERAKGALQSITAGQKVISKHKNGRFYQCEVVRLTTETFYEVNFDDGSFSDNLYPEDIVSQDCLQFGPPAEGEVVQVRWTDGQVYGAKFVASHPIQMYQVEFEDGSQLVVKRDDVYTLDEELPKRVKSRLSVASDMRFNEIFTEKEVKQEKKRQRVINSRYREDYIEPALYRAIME
# Test: qHTS Assay for Inhibitors of JMJD2A-Tudor Domain; note: nearly all actives have a fitted effect of over 50% in size
# Settings: AlphaScreen JMJD2A-Tudor / H3K4me3 peptide binding; series mostly up to 114 µM
# Potency is the fitted concentration of half-maximal effect; tags give direction and shape of the fitted curve.
row,SMILES,Potency
1,Cc1cccc(CS(=O)(=O)CC2Nc3ccc(C(=O)NCc4ccccc4Cl)cc3NC2=O)c1 (centres undefined),inactive
2,COC(=O)c1cc(NC(=O)Cn2ncc3c2-c2ccccc2OC3)cc(C(=O)OC)c1,inactive
3,COc1ccc(NS(=O)(=O)c2cccc(C(=O)N(C)Cc3ccc(SC)cc3)c2)cc1,"inconclusive: 11.2 µM [inhibitor, partial curve]"
4,C/C(CC(=O)Nc1ccccn1)=N\NC(=O)c1cnccn1,"inconclusive: 14.1 µM [inhibitor, full curve]"
5,CCOC(=O)c1ccc(N2C(=O)c3[nH]nc(-c4ccc(OC)cc4)c3C2c2ccc(C)cc2)cc1 (centres undefined),"inconclusive: 3.98 µM [inhibitor, full curve, poor fit]"
6,CCOc1ccc(N2CC(c3nc4ccccc4n3CCC3CCCCC3)CC2=O)cc1 (centres undefined),inactive
7,CCOc1ccc(N/C(C)=C\C(=O)c2ccc3c(c2)OCCO3)cc1,"inconclusive: 25.1 µM [inhibitor, partial curve]"
8,CC(C)Nc1cc(C(C)(C)C)nc2c(-c3ccccc3)cnn12,inactive
9,O=C(OCCN1CCOCC1)C(c1ccccc1)c1ccccc1,"inconclusive: 89.1 µM [inhibitor, single point]"
10,C=CCOc1ccc(C=Nc2cccc(Cl)c2)c(O)c1,"inconclusive: 31.6 µM [inhibitor, single point]"
11,CCOc1cccc(-c2cc(-c3n[nH]c(=S)n3CC)c3ccccc3n2)c1,"inconclusive: 56.2 µM [inhibitor, partial curve]"
12,NC(=O)CC(NC(=O)c1ccccc1)c1ccc(NCCOc2ccccc2)c([N+](=O)[O-])c1 (centres undefined),"inconclusive: 50.1 µM [inhibitor, partial curve]"
13,CCOc1cc(C(=O)NCCc2ccc(S(N)(=O)=O)cc2)cc(OCC)c1OCC,"inconclusive: 14.1 µM [inhibitor, partial curve, poor fit]"
14,c1ccc2c(C[C@@H]3CNCCN3CC3CCCCC3)cccc2c1,"inconclusive: 89.1 µM [inhibitor, partial curve]"
15,COc1ccc(OCCN2CCOCC2)cc1,active: 50.1 µM
16,CCOC1=C/C(=C/c2c(N)n3nc(CC(=O)N4CCCCC4)sc3nc2=O)C=CC1=O,"inconclusive: 35.5 µM [inhibitor, full curve, poor fit]"
17,COc1cccc(C2Nc3cc(Cl)c(S(N)(=O)=O)cc3S(=O)(=O)N2)c1 (centres undefined),active: 50.1 µM
18,Cc1cc(F)ccc1NC(=O)CCc1c(C)nn(-c2ccc(N3CCCCC3)nn2)c1C,"inconclusive: 17.8 µM [inhibitor, full curve, poor fit]"
19,O=C(O)COc1ccccc1C=NNC(=O)c1ccc(NS(=O)(=O)c2cccs2)cc1,"inconclusive: 35.5 µM [inhibitor, single point]"
20,Cc1cc(C(=O)Nc2ncn(Cc3ccc(F)cc3)n2)ccc1[N+](=O)[O-],inactive
21,CC(C)S(=O)(=O)c1csc(NC(=O)Nc2cccc([N+](=O)[O-])c2)c1Cl,"inconclusive: 50.1 µM [inhibitor, partial curve]"
22,O=C(N/N=C/c1ccncc1)c1cc([N+](=O)[O-])cc([N+](=O)[O-])c1O,active: 79.4 µM
23,CCCCN(CC(=O)NC1CCCC1)C(=O)C(=O)Nc1ccc2c(c1)OCCO2,active: 79.4 µM

row,SMILES,Potency
1,S=C(c1ccc(-c2ccc(Cl)c(Cl)c2)o1)N1CCOCC1,active: 35.5 µM
2,CCC(=O)N1c2ccc(S(=O)(=O)CCC(=O)NCc3ccc4c(c3)OCO4)cc2CC1C (centres undefined),active: 50.1 µM
3,Cc1ccc2nc(NCc3ccco3)c(C=NCc3ccco3)c(=O)n2c1,inactive
4,COc1ccccc1C(c1nnnn1C(C)(C)C)N1CCN(C(=O)c2ccco2)CC1 (centres undefined),"inconclusive: 89.1 µM [inhibitor, single point]"
5,CC(C)[C@H](NC(=O)C1CCN(C(=O)[C@@H]2CCCN2)CC1)C(=O)NCc1ccc(F)cc1,"inconclusive: 89.1 µM [inhibitor, single point]"
6,COC(=O)c1ccccc1NC1=C/C(=N\S(=O)(=O)c2cccs2)c2ccccc2C1=O,active: 2.82 µM and active: 3.98 µM
7,NCCCNC(=O)c1cc2ccccc2[nH]1,"inconclusive: 89.1 µM [inhibitor, single point]"
8,CC(Nc1cc(N2CCN(S(=O)(=O)N(C)C)CC2)ccc1[N+](=O)[O-])c1ccccc1 (centres undefined),"inconclusive: 35.5 µM [inhibitor, partial curve]"
9,O=S(=O)(Nc1ccc(N2CCCCC2)cc1)c1ccc(F)cc1F,"inconclusive: 50.1 µM [inhibitor, partial curve]"
10,O=C1C=CC(=O)N1CCCCCCCCCCN1C(=O)C=CC1=O,"inconclusive: 2.51 µM [inhibitor, full curve]"
11,CC(C)(C)NC(=O)CSc1nnc(CN2CCCCCC2=O)n1-c1ccccn1,"inconclusive: 28.2 µM [inhibitor, partial curve]"
12,COc1ccc(C2C3=C(CCCC3=O)NC3=C2C(=O)c2ccccc23)cc1 (centres undefined),active: 50.1 µM
13,COc1ccc2[nH]c3c(c2c1)CCN1C(=O)N([C@@H](C)C(=O)NC2CCCCC2C)C(=O)[C@]31C (some centres undefined),"inconclusive: 56.2 µM [inhibitor, partial curve]"
14,COc1cc2c(cc1OC)/C(=C/C(=O)c1ccc([N+](=O)[O-])c(C)c1)NCC2,active: 20 µM
15,COc1ccccc1N1CCN(c2ccc3cc(S(=O)(=O)N4CCCCC4)ccc3n2)CC1,inactive
16,Cc1ccc(-n2nc(-c3ccc(N)cc3)cc2N)cc1,"inconclusive: 50.1 µM [inhibitor, partial curve]"
17,CCOC(=O)c1c(C)[nH]c(C2=NNC(=Nc3ccc(OCC)cc3)SC2)c1C,active: 56.2 µM
18,CC(C)OC(=O)c1cc2c(ccn2C)n1CC(=O)N(Cc1ccccc1)c1ccccc1,active: 17.8 µM
19,CCCCc1n[nH]c(=S)n1Cc1ccccc1,active: 3.98 µM
20,COc1ccc(OC)c(NC(=O)CSc2n[nH]c(-c3ccccc3Cl)n2)c1,inactive
21,COc1ccc(C2CC(c3ccc(C)o3)=NN2C(C)=O)cc1 (centres undefined),inactive
22,C/C(CC(=O)NC(C)(C)C)=N\NC(N)=S,"inconclusive: 3.98 µM [inhibitor, single point]"
23,COc1ccc(Br)c2c1-c1nc(NC(=O)c3cccc(C)c3)sc1C2,"inconclusive: 56.2 µM [inhibitor, partial curve]"

row,SMILES,Potency
1,O=C(O)c1cccc(-c2nnn(Cc3ccccc3Cl)n2)c1,"inconclusive: 56.2 µM [inhibitor, partial curve]"
2,CCOc1ccc(-n2nc(CO)c(C(=O)NCc3ccc(Cl)cc3)n2)cc1,inactive
3,Cc1[nH]c2ccccc2c1C(=O)/C=C/c1ccccc1Cl,"inconclusive: 31.6 µM [inhibitor, single point]"
4,CC1(OC(=O)CCc2ccccc2)C(=O)C=C2C=C(c3ccc(C#N)cc3)N(C3CCCCC3)C=C2C1=O (centres undefined),"inconclusive: 44.7 µM [inhibitor, partial curve]"
5,O=C1OC(c2ccc(Cl)cc2)=N/C1=C\C=C\c1ccco1,"inconclusive: 22.4 µM [inhibitor, partial curve]"
6,CCOc1ccc(CN2C(=O)c3ccccc3Sc3ccc(C(=O)N4CCN(C)CC4)cc32)cc1,"inconclusive: 3.16 µM [inhibitor, partial curve, poor fit]"
7,O=[N+]([O-])c1cc([N+](=O)[O-])c2oc(-c3ccccc3)c(Br)c2c1O,active: 44.7 µM
8,C=C(C)CSc1nnc([C@@H]2CCCN2)o1,active: 50.1 µM
9,COc1ccc(N2CCN(CCCNC(=O)Nc3ccccc3Cl)CC2)cc1,"inconclusive: 20 µM [inhibitor, partial curve]"
10,CCOc1ccc(C2=C(C=C(C#N)C#N)C(c3ccccc3)c3ccccc3O2)cc1 (centres undefined),"inconclusive: 7.08 µM [inhibitor, full curve]"
11,CCC(=O)Nc1nnc(S(=O)(=O)N(C)Cc2ccc(Cl)cc2)s1,inactive
12,CCOC(=O)c1ccc(NC(=O)CN(c2ccc(C)cc2)S(=O)(=O)c2ccc(OC)cc2)cc1,inactive
13,S=c1[nH]nc(COc2ccc(Cl)cc2)o1,active: 79.4 µM
14,COc1cccc(CN2CCN(C(=O)c3cccc4ccccc34)CC2)c1,active: 28.2 µM
15,O=C(C1CCN(Cc2ccc(Cl)cc2)CC1)N1CCN(C(c2ccccc2)c2ccccc2)CC1,"inconclusive: 3.16 µM [inhibitor, partial curve, poor fit]"
16,CCOc1ccccc1NC(=O)CSC1=Nc2ccccc2C2=NC(CC(=O)NC3CCCCC3)C(=O)N12 (centres undefined),inactive
17,O=C(N/N=C/c1cc(Cl)ccc1O)C(=O)Nc1ccccc1OC(F)(F)C(F)F,"inconclusive: 70.8 µM [inhibitor, single point]"
18,Cc1cc(C(=O)CSc2n[nH]c(N)n2)c(C)n1-c1ccc2c(c1)OCO2,"inconclusive: 39.8 µM [inhibitor, partial curve]"
19,Cc1ccc(CN=c2c([N+](=O)[O-])nn(-c3cccc(C)c3)n2O)cc1,active: 35.5 µM
20,NC(=O)C1CCN(C2=C(NS(=O)(=O)c3ccc(Cl)cc3)C(=O)c3ccccc3C2=O)CC1,"inconclusive: 50.1 µM [inhibitor, partial curve]"
21,CC1=CC(=C(C#N)c2nc3ccccc3s2)C=C(C)N1CC1CCCO1 (centres undefined),inactive
22,COc1ccc(/C=C2\SC(=S)N(CCC(=O)Nc3ccccc3C(=O)O)C2=O)cc1,"inconclusive: 89.1 µM [inhibitor, partial curve]"
23,NC(=NCCc1c[nH]c2ccccc12)NC(=O)c1ccc(Cl)cc1,"inconclusive: 31.6 µM [inhibitor, partial curve]"

# Reference: PubChem BioAssay AID504339 (National Center for Advancing Translational Sciences (NCATS), 2011)
